# Laboratory results: US7763623B2, “Heterocycles as nicotinic acid receptor agonists for the treatment of dyslipidemia” (Schering Corporation, priority 2006, dated 2010)
# Biological target: recombinant human nicotinic acid receptor (NAR) (Homo sapiens, UniProt Q8TDS4)
# Test: inhibition of forskolin-stimulated cAMP accumulation in CHO cells (MesoScale Discovery cAMP detection kit)
# Type: cell-based
# Details: CHO cells expressing recombinant human NAR, 30 minutes at room temperature
# Method: The nicotinic acid receptor agonist activity of compounds 1-285 was determined by following the inhibition of forskolin-stimulated cAMP accumulation in cells using the MesoScale Discovery cAMP detection kit following the manufacturer's protocol. Briefly, Chinese Hamster Ovary (CHO) cells expressing recombinant human nicotinic acid receptor (NAR) were harvested enzymatically, washed 1× in phosphate buffered saline (PBS) and resuspended in PBS containing 0.5 mM IBMX at 3×10^6 cells/mL. Ten μL of cell suspension was added to each well of a 384-well plate which contained 10 μL of test compounds. Test compounds were diluted with PBS containing 6 μM of forskolin. Plates were incubated for 30 minutes at room temperature after the addition of cells. Lysis buffer containing cAMP-Tag was added to each well (10 μL/well) as per the manufacturer's protocol. Plates were then incubated from 45 minutes to overnight. Prior to reading, 10 μL of read buffer was added to each well, and the plate was read in a Sector 6000 plate imager. The signal was converted to cAMP concentration using a standard curve run on each plate. Compound EC50 values were determined from concentration gradients of test compounds.
# Sequence of UniProt Q8TDS4 (Q8TDS4 whole entry): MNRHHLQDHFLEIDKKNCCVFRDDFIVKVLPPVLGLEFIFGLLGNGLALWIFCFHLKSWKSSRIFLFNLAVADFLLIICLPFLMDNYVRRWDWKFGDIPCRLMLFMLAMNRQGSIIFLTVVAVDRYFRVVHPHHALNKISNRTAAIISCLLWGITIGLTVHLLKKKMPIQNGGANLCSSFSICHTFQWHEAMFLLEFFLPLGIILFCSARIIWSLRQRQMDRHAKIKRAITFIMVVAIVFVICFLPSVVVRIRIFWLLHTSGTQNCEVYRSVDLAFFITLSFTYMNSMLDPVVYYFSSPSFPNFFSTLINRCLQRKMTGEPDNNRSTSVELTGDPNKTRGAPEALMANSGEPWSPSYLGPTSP
row,EC50 [µM],SMILES
1,> 1,CCc1cc(=O)oc2nc(O/N=C(\C)c3nccs3)[nH]c(=O)c12 [Compound 40]
2,> 1,CCc1cc(=O)oc2nc(O/N=C(\C)c3cnccn3)[nH]c(=O)c12 [Compound 55]
3,> 1,CCc1cc(=O)oc2nc(O/N=C3\CCCc4sccc43)[nH]c(=O)c12 [Compound 65]
4,> 1,O=c1cc(Cc2cccc3ccccc23)c2c(=O)[nH]c(ON=C3CCCC3)nc2o1 [Compound 131]
5,> 1,CCOC(=O)NC1CCC(=NOc2nc3oc(=O)cc(CCC4CCCCC4)c3c(=O)[nH]2)CC1 (centres unmarked) [Compound 238]
6,> 1,O=c1cc(CCC2CCCCC2)c2c(=O)[nH]c(ON=C3CCOCC3)nc2o1 [Compound 247]
7,> 1,CC(C)(C)OC(=O)N1CCC(=NOc2nc3oc(=O)cc(CCC4CCCCC4)c3c(=O)[nH]2)CC1 [Compound 248]
8,> 1,O=c1cc(CCC2CCCCC2)c2c(=O)[nH]c(ON=C3CCC(F)(F)CC3)nc2o1 [Compound 258]
9,> 1,O=c1cc(CCC2CCCCC2)c2c(=O)[nH]c(ON=C3CCC(C(F)(F)F)CC3)nc2o1 (centres unmarked) [Compound 262]
10,> 1,CCCc1cc(=O)oc2nc(O/N=C3\CCCc4ccccc43)[nH]c(=O)c12 [Compound 278]
11,> 1,CCCc1cc(=O)oc2nc(ON=C3CCCC3)[nH]c(=O)c12 [Compound 279]
12,> 1,CCCc1cc(=O)oc2nc(ON=C3CCCCC3)[nH]c(=O)c12 [Compound 280]
13,> 1,CCCc1cc(=O)oc2nc(ON=C3CCOCC3)[nH]c(=O)c12 [Compound 281]
14,> 1,CCCc1cc(=O)oc2nc(ON=C3CCC(F)(F)CC3)[nH]c(=O)c12 [Compound 282]

row,SMILES,EC50 [µM]
1,CCOC(=O)N1C2CCC1CC(=NOc1nc3oc(=O)cc(Cc4cccc5ccccc45)c3c(=O)[nH]1)C2 [Compound 129],> 1
2,O=C(OC1CCCC1)N1C2CCC1CC(=NOc1nc3oc(=O)cc(Cc4cccc5ccccc45)c3c(=O)[nH]1)C2 [Compound 130],> 1
3,CCOC(=O)N1C2CCC1CC(=NOc1nc3oc(=O)cc(CCC4CCCCC4)c3c(=O)[nH]1)C2 [Compound 246],> 1
